In the supplement of paper PMC4723716:
± gives the uncertainty stated by the source. Over roughly 9,900 compounds, “viability index relative to DMSO control” has its median near 1; the lowest 2% begin near 0.85. This is one part of the list.

System: Plasmodium falciparum NF54 stage V gametocytes
Assay: viability index relative to DMSO control (fraction); higher = less gametocyte killing
Settings: 2.5 µM, incubation time: 72 h
How it was run: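 Stage V gametocytes of P. falciparum NF54 were held in serum-free screening medium at 0.75% gametocytemia and 1.25% hematocrit, 10 µl per well of a 1,536-well plate, and exposed to compound at 2.5 µM for 72 hr at 37°C under low oxygen. A 3 µl mix of 2.5 µM MitoTracker Red CMXRos with 0.13% saponin was then added for one to two hours, after which one field per well was imaged and red particles of 20–70 µm2 were counted. The viability index equals this count divided by the plate mean from wells given solvent alone.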

[1] = library set: Broad Institute DOS

C[C@H](NC(=O)C[C@@H]1CC[C@@H]2[C@H](COC[C@H](O)CN2C(=O)Nc2cccc(Cl)c2)O1)c1ccccc1 showed a viability index [1] of 1.09 ± 0.051.
Compound COc1cccc(-c2cn(CC[C@@H]3CC[C@@H](NS(=O)(=O)c4ccccc4Cl)[C@H](CO)O3)nn2)c1 has a viability index [1] of 0.915 ± 0.058.
COc1ccc(S(=O)(=O)N(C)C[C@H]2Oc3ccc(NC(=O)Nc4ccc(C(F)(F)F)cc4)cc3C(=O)N([C@@H](C)CO)C[C@H]2C)cc1 gave a viability index [1] of 1.06 ± 0.014.
CCS(=O)(=O)N1[C@H](C#N)[C@@H](c2ccc(C#CCC3CCCC3)cc2)[C@@H]1CO gave a viability index [1] of 1.0889 ± 0.00066.
Cn1cnc(S(=O)(=O)N2C[C@@H]3N[C@H](C2)[C@@H]3c2ccc(-c3ccccc3F)cc2)c1 gave a viability index [1] of 1.11 ± 0.017.
Compound O=C(C1CC1)N1CC[C@H]2[C@H](CO)Nc3ccc(Br)cc3[C@H]21 has a viability index [1] of 1.03 ± 0.024.
C[C@@H]1CN([C@H](C)CO)C(=O)Cc2cc(NS(=O)(=O)c3ccc(F)cc3)ccc2O[C@H]1CN(C)Cc1ccncc1 showed a viability index [1] of 1.07 ± 0.045.
In the case of C[C@@H](NC(=O)C[C@H]1CC[C@@H]2[C@H](COc3ccc(NC(=O)C4CCOCC4)cc3C(=O)N2C)O1)c1ccccc1, the viability index [1] is reported as 1.14 ± 0.078.
With CCCNC(=O)N1[C@H](C#N)[C@H](c2ccc(C#Cc3ccc(F)cc3)cc2)[C@@H]1CO the viability index (library set: Broad Institute Blood Stage) was 0.844 ± 0.021.
For COc1ccccc1NC(=O)N1C[C@@H]2[C@H](c3ccccc31)[C@H](CO)N2Cc1ccc2c(c1)OCO2, the viability index [1] was 0.975 ± 0.038.
O=C(c1ccccn1)N1CC[C@@H]2[C@@H](CO)Nc3ccc(Br)cc3[C@@H]21 gave a viability index [1] of 1.14 ± 0.095.
With O=C(c1ccccn1)N1C[C@@H]2[C@H](c3ccccc31)[C@H](CO)N2C(=O)Nc1ccccc1Cl the viability index [1] was 1.05 ± 0.039.
For COc1ccc(S(=O)(=O)Nc2ccc3c(c2)C(=O)N([C@H](C)CO)C[C@H](C)[C@@H](CN(C)C(=O)Nc2c(C)noc2C)OCCCC[C@@H](C)O3)cc1, the viability index [1] was 1.08 ± 0.045.
With COc1ccccc1S(=O)(=O)N1[C@@H]2CNC[C@H]1[C@H]2c1ccc(-c2ccncc2)cc1 the viability index [1] was 1.15 ± 0.016.
With O=C(C1CCOCC1)N1CC[C@@H]2[C@H](CO)Nc3ccc(-c4cccc(F)c4)cc3[C@@H]21 the viability index [1] was 1.11 ± 0.0031.
In the case of COc1ccc(NC(=O)N(C)C[C@H]2Oc3ccc(NC(=O)CCN4CCOCC4)cc3C(=O)N([C@@H](C)CO)C[C@H]2C)cc1, the viability index [1] is reported as 1.01 ± 0.086.
CS(=O)(=O)N1CC2(C1)[C@H](c1ccccc1)[C@H](CO)N2Cc1ccccc1 was tested, and the viability index [1] was 1.12 ± 0.062.
Compound C[C@H](CO)N1C[C@H](C)[C@H](CN(C)Cc2ccccc2C(=O)O)Oc2cc(-c3ccc(F)cc3)ccc2S1(=O)=O has a viability index [1] of 0.983 ± 0.054.
Work on O=C(Cc1ccccn1)N[C@@H]1CC[C@@H](CCNS(=O)(=O)c2cccc(F)c2)O[C@H]1CO yielded a viability index [1] of 1.03 ± 0.099.
O=C(c1cnccn1)N1CC(=O)N2[C@H](CO)[C@H](c3ccc(-c4cccc(F)c4)cc3)[C@H]2C1 gave a viability index [1] of 1.055 ± 0.0042.
With C/C=C/c1ccc([C@@H]2[C@@H]3CN(S(=O)(=O)c4cccc(OC)c4)C[C@H]2N3)cc1 the viability index [1] was 0.9677 ± 0.0036.
CO[C@H]1CN(C)C(=O)c2cc(NC(=O)c3nc4ccccc4s3)ccc2OC[C@@H](C)NC[C@H]1C was tested, and the viability index [1] was 1.14 ± 0.05.
For COc1ccccc1NC(=O)N1CCCCN2[C@H](CO)[C@@H](c3ccc(-c4cccc(C#N)c4)cc3)[C@@H]2C1, the viability index [1] was 0.926 ± 0.01.
For CO[C@H]1CC[C@@H]2CCOc3c(C#N)cccc3C(=O)N(C)CC3(CCCCC3)CC(=O)N(C)C[C@@H]1O2, the viability index [1] was 1.05 ± 0.097.
In the case of CCCC(=O)Nc1ccc2c(c1)C(=O)N(C)[C@H]1CC[C@H](CC(=O)NCc3cccc(F)c3)O[C@@H]1CO2, the viability index [1] is reported as 1.02 ± 0.059.
In the case of CN(C)CC(=O)N1[C@@H](C#N)[C@H](c2ccc(-c3cccc(C(=O)N(C)C)c3)cc2)[C@@H]1CO, the viability index [1] is reported as 1.16 ± 0.082.
With C[C@@H]1CCCCO[C@@H](CN(C)Cc2ccc(Cl)c(Cl)c2)[C@@H](C)CN([C@H](C)CO)C(=O)c2cc(NS(=O)(=O)c3cccs3)ccc2O1 the viability index [1] was 1.05 ± 0.13.
Compound C[C@@H]1CN([C@H](C)CO)C(=O)c2c(c3ccccc3n2C)-c2ccccc2CO[C@@H]1CN(C)C(=O)[C@@H](Cc1ccccc1)N(C)C has a viability index [1] of 1.07 ± 0.018.
COc1ccc(CNC(=O)c2cc3c(c(-c4cccc(-c5ccc(C#N)cc5)c4)n2)[C@H](CCO)N([S@@](=O)C(C)(C)C)C3)cc1 was tested, and the viability index [1] was 0.977 ± 0.085.
N#C[C@@H]1[C@@H](c2ccc(-c3cccc(F)c3)cc2)[C@@H](CO)N1C(=O)NC1CCCC1 showed a viability index [1] of 1.02 ± 0.035.
In the case of CN(C)CC(=O)N1[C@H](C#N)[C@H](c2ccccc2-c2ccc(C(=O)N(C)C)cc2)[C@@H]1CO, the viability index [1] is reported as 1.14 ± 0.16.
Work on CC(C)(C)[S@@](=O)N1Cc2cc(C(=O)N[C@@H]3CCN(Cc4ccccc4)C3)nc(-c3cccc(-c4cccnc4)c3)c2[C@H]1CCO yielded a viability index [1] of 1.02 ± 0.06.
With O=C(CN1CCOCC1)N[C@H]1CC[C@@H](CCn2cc(C3CC3)nn2)O[C@@H]1CO the viability index [1] was 1.06 ± 0.14.
COc1ccc2c3c([C@@H](CO)NC[C@]33CCN(Cc4ccncc4)CC3)n(C)c2c1 was tested, and the viability index [1] was 1.01 ± 0.045.
For C[C@H]1CN([C@@H](C)CO)C(=O)c2cc(NC(=O)Nc3ccccc3)ccc2O[C@@H]1CN(C)Cc1ccccc1, the viability index [1] was 0.9913 ± 0.0053.
For CCCC(=O)Nc1ccc2c(c1)C(=O)N(C)C[C@H](OC)[C@H](C)CN(Cc1ccc(F)cc1)[C@@H](C)CO2, the viability index [1] was 1.041 ± 0.0013.
For C[C@H](CO)N1C[C@H](C)[C@@H](CN(C)C(=O)Nc2ccc3c(c2)OCO3)OCc2cn(nn2)CCCC1=O, the viability index [1] was 0.989 ± 0.024.
Compound COC(=O)C[C@H]1CC[C@H](N)[C@@H](CO)O1 has a viability index [1] of 1.03 ± 0.017.
Compound COCCNC(=O)C[C@@H]1C[C@H]2c3cc(NC(=O)CN(C)C)ccc3O[C@H]2[C@@H](CO)O1 has a viability index [1] of 1.06 ± 0.043.
COc1ccc2c3c([nH]c2c1)[C@H](CO)N(Cc1ccccc1OC)C[C@]31CN(C1)C(C)=O was tested, and the viability index [1] was 0.9558 ± 0.0065.
Compound C[C@@H](NC(=O)C[C@@H]1CC[C@H]2[C@@H](COC[C@H](O)CN2Cc2ccc(C(F)(F)F)cc2)O1)c1ccccc1 has a viability index [1] of 1.079 ± 0.0056.
For CO[C@H]1CN(C)C(=O)c2cc(NC(C)=O)ccc2OC[C@@H](C)N(C(=O)Cc2ccccn2)C[C@H]1C, the viability index [1] was 1.11 ± 0.014.
COc1ccc([C@@H]2C/C=C\C[C@H](c3ccc(F)cc3)NC(=O)CCC(=O)N2)c(OC)c1 showed a viability index [1] of 1.015 ± 0.01.
CN1C(=O)c2cc(NC(=O)C3CCOCC3)ccc2OC[C@@H]2O[C@H](CC(=O)NCCc3ccncc3)CC[C@@H]21 was tested, and the viability index [1] was 1.122 ± 0.0072.
Work on COc1cccc(-c2ccc3c(c2)[C@H]2[C@H](CCN2S(=O)(=O)c2cn(C)cn2)[C@H](CO)N3)c1 yielded a viability index [1] of 1.13 ± 0.085.
Cc1ccc(NC(=O)Nc2ccc3c(c2)C(=O)N(C)[C@@H]2CC[C@@H](CC(=O)NCC(F)(F)F)O[C@H]2CO3)cc1 showed a viability index [1] of 1.17 ± 0.072.
CCCNC(=O)N1CC(=O)N2[C@H](C1)[C@@H](c1ccc(C#Cc3cccc(OC)c3)cc1)[C@@H]2CO was tested, and the viability index [1] was 1.05 ± 0.059.
O=C(C[C@@H]1CC[C@H]2[C@@H](COC[C@H](O)CN2C(=O)c2cnccn2)O1)NCc1ccc(Cl)cc1 showed a viability index [1] of 1.08 ± 0.025.
CN(C[C@H]1[C@H](c2ccccc2)[C@H](CO)N1Cc1ccccn1)S(C)(=O)=O was tested, and the viability index [1] was 1.04 ± 0.042.
For O=C(C1CCC1)N1CC2(C1)[C@H](c1ccccc1)[C@@H](CO)N2Cc1nccs1, the viability index [1] was 1.06 ± 0.056.
For CO[C@H]1CN(C)C(=O)c2cc(NC(=O)c3cnccn3)ccc2OC[C@@H](C)NC[C@H]1C, the viability index [1] was 0.983 ± 0.06.
COCC(=O)N1[C@H](C#N)[C@H](c2ccc(C#Cc3ccccc3F)cc2)[C@H]1CO was tested, and the viability index [1] was 1.13 ± 0.014.
O=S(=O)(NC[C@H]1[C@@H](c2ccccc2)[C@@H](CO)N1CC1CC1)c1ccccc1 showed a viability index [1] of 0.985 ± 0.039.
Work on C/C=C/c1ccccc1[C@H]1[C@H](C#N)N(c2nc(CC)cs2)[C@H]1CO yielded a viability index [1] of 1.08 ± 0.11.
In the case of CN1[C@@H]2CN(C(=O)C3CCCCC3)c3ccccc3[C@@H]2[C@@H]1CO, the viability index [1] is reported as 1.06 ± 0.063.
Work on OC[C@@H]1[C@@H](c2ccccc2)C2(CN(Cc3ccc4c(c3)OCO4)C2)N1Cc1ccccc1 yielded a viability index [1] of 0.894 ± 0.024.
For Cc1noc(C)c1S(=O)(=O)Nc1cccc2c1O[C@@H](CN(C)Cc1ccc(C(F)(F)F)cc1)[C@@H](C)CN([C@@H](C)CO)C2=O, the viability index [1] was 0.953 ± 0.062.
Work on COc1ccc(-c2ccc3c(c2)[C@H]2[C@H](CCN2C(=O)c2cccc(F)c2)[C@H](CO)N3)cc1 yielded a viability index [1] of 1.05 ± 0.037.
For COC(=O)C[C@@H]1CC[C@H]2[C@@H](COc3ccc(NC(=O)Nc4c(C)noc4C)cc3C(=O)N2C)O1, the viability index [1] was 0.9699 ± 0.0061.
Compound COCC(=O)N1CC[C@@H]2[C@H]1c1cc(C#Cc3ccc(F)cc3)ccc1N[C@@H]2CO has a viability index [1] of 1.08 ± 0.12.
For CO[C@H]1CC[C@@H]2CCOc3c(C#N)cccc3C(=O)N(C)C[C@H](OC)[C@H](C)C(=O)N(C)C[C@@H]1O2, the viability index [1] was 1.06 ± 0.041.
In the case of COc1ccc2c3c([nH]c2c1)[C@@H](CO)N(C[C@]31CN(C)C1)C(=O)c1ccncc1, the viability index [1] is reported as 0.947 ± 0.14.
O=C1C[C@@H](c2ccccc2)C(=O)N[C@@H](c2ccccc2)C/C=C\C[C@H](c2ccccc2)N1 showed a viability index [1] of 1.08 ± 0.048.
In the case of C/C=C/c1ccc([C@H]2[C@@H]3CN(C(=O)Nc4ccc(C(F)(F)F)cc4)C[C@H]2N3)cc1, the viability index [1] is reported as 1 ± 0.032.
CCCC(=O)N1C[C@H]2[C@@H](c3ccccc31)[C@@H](CO)N2Cc1cocn1 showed a viability index [1] of 1.012 ± 0.0066.
Work on COc1ccccc1NC(=O)N1C[C@@H](C)[C@H](OC)CN(C)C(=O)c2ccc(NC(=O)c3cc(C)on3)cc2OC[C@H]1C yielded a viability index [1] of 1.04 ± 0.035.
CO[C@H]1CN(C)C(=O)c2cc(NC(=O)c3ccc4c(c3)OCO4)ccc2OC[C@H](C)N(CCC(F)(F)F)C[C@@H]1C gave a viability index [1] of 1.16 ± 0.044.
C[C@@H]1CN([C@H](C)CO)C(=O)CCCn2nncc2CO[C@@H]1CN(C)S(=O)(=O)c1ccc(Oc2ccccc2)nc1 was tested, and the viability index [1] was 1.05 ± 0.026.
For CC(C)(C)[S@@](=O)N1Cc2cc(C(=O)N3CCOCC3)nc(-c3cccc(-c4ccccc4F)c3)c2[C@H]1CCO, the viability index [1] was 1.08 ± 0.034.
Compound CN(C)C(=O)C[C@@H]1CC[C@H]2[C@H](COc3ccc(NC(=O)C4CCCCC4)cc3C(=O)N2C)O1 has a viability index [1] of 1.07 ± 0.072.
O=C(NCC[C@@H]1CC[C@H](NC(=O)C2CCOCC2)[C@@H](CO)O1)c1cc(Cl)cc(Cl)c1 was tested, and the viability index [1] was 0.979 ± 0.036.
Compound Cc1ccc(S(=O)(=O)N(C)C[C@H]2Oc3cc(C#CC4CCCC4)ccc3S(=O)(=O)N([C@H](C)CO)C[C@@H]2C)cc1 has a viability index [1] of 0.676 ± 0.26.
